From PubChem BioAssay (Tox21)
Values joined by “and” are separate entries in the source; they are usually repeats but may differ in a detail not shown here. Equal entries are not always repeated. The inconclusive results got no clear call from the source; some entries with a clear call stand among them for comparison. Where the call is inconclusive, the potency comes from a doubtful curve fit. Where a structure was tested more than once in an assay, its records may differ in their call. Active and inactive are the calls of the source. Calls follow the shape of the dose curve; as a rule, active = well fitted cell-killing curve with a large enough effect in the repeat runs; inconclusive = weak or mixed curves, or effect the other way; inactive = flat fitted curve, though single readings scatter.

test: qHTS assay to identify small molecule antagonists of the androgen receptor (AR) signaling pathway using the MDA cell line - cell viability counter screen (AID 743041; also: nearly all actives have a fitted effect of over 45% in size); conditions: MDA-kb2 viability, CellTiter-Fluor, 16 h, cells co-treated with R1881 androgen agonist; series mostly up to 70.3 µM
Outline: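 Viability read by CellTiter-Fluor fluorescence in the same wells as the antagonist screen, added after 15.5 h of a 16 h, 37C exposure. Human breast carcinoma MDA-kb2 AR-luc cells, compounds co-dosed with agonist R1881.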
Potency is read from the fitted curve at half-maximal effect; tags tell the direction and shape of the fitted curve.

SMILES | Potency
O=C(O[C@@H]1Cc2c(O)cc(O)cc2O[C@@H]1c1cc(O)c(O)c(O)c1)c1cc(O)c(O)c(O)c1 | inconclusive: 66.1 µM [cytotoxic]
CCOC(=O)O[C@H](C)OC(=O)c1ccc2c(c1)cc(C(=O)NC1CCN(C(C)C)CC1)n2Cc1cc(-c2ccc(Cl)s2)on1 | active: 57.1 µM
CCN(CC)CCOC(=O)C1(C2CCCCC2)CCCCC1 | inconclusive: 33.5 µM [cytotoxic, single point]
CCCCC(CC)COC(=O)CC(C(=O)OCC(CC)CCCC)S(=O)(=O)O (centres undefined) | inconclusive: 33.5 µM [cytotoxic, partial curve, poor fit]
COc1cc(/C=C/C(=O)CC(=O)/C=C/c2ccc(O)c(OC)c2)ccc1O | inconclusive: 27.8 µM [cytotoxic, single point] and inconclusive: 27.5 µM [cytotoxic, partial curve]
CCN(CC)c1ccc2c(C)cc(=O)oc2c1 | inconclusive: 30.9 µM [rising, partial curve] and inconclusive: 54.5 µM [rising, partial curve]
O=c1n(CC2CO2)c(=O)n(CC2CO2)c(=O)n1CC1CO1 (centres undefined) | inconclusive: 68.2 µM [cytotoxic, single point] and inconclusive: 68.6 µM [cytotoxic]
CCCCCCOC(=O)c1ccc(O)cc1 | inconclusive: 77 µM [cytotoxic, single point]
NC(N)=NC(N)=NCCc1ccccc1 | inconclusive: 14.3 µM [cytotoxic]
